From PubChem BioAssay AID1345083 (National Center for Advancing Translational Sciences (NCATS), 2018)
Among all 94,000 compounds or so, about 6,200 (6.6%) were called active. This list was built around the results that the source calls inconclusive (neither active nor inactive); the mix of calls is not that of the screen. Calls come from the whole dose curve; as a rule, active = well fitted inhibition curve with a large enough effect; inconclusive = small, poorly fitted or top-dose-only effect; inactive = flat fitted curve, though single readings scatter. Where the call is inconclusive, the potency comes from a doubtful curve fit.

Assay: Cytotoxic Profiling in HEK 293 Cell Line of Diverse Libraries Using Quantitative High-Throughput Screening; note: nearly all actives have a fitted effect of over 60% in size
Conditions: HEK 293 viability, ATP luminescence (CellTiter-Glo), 48-72 h; series mostly up to 115 µM
Procedure, shortened: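 qHTS cytotoxicity; HEK 293, 250 cells/well; compound pinned; 48 or 72 hr, 37 degree Celsius, 5% CO2, 95% humidity; CellTiter-Glo, 10 min RT; luminescence (ATP).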
Potency is the fitted concentration of half-maximal effect; tags give direction and shape of the fitted curve.

| SMILES | Potency |
| --- | --- |
| CCOc1ccccc1C(=O)N1CCC[C@H]1c1nc(-c2ccc(F)cc2)no1 | active: 35.5 µM |
| O=C(c1ccc2c(c1)OCO2)N1CCC2(CC1)COc1ccccc1NC2=O | inconclusive: 79.4 µM [inhibitor, partial curve] |
| O=C(C1CCCN(C2CCN(c3nc4ccccc4o3)CC2)C1)N1CCSCC1 (centres undefined) | inconclusive: 79.4 µM [inhibitor, partial curve, poor fit] |
| Cc1ccc2c(C)c(C(=O)N3C[C@@H](CN4CCC(O)CC4)[C@@H](CO)C3)oc2c1 | inactive |
| O=C(C1CCCC1)N1CCC2(CC1)CC(c1ccccc1)=NO2 | inconclusive: 79.4 µM [inhibitor, partial curve] |
| O=C(c1nc2cccnc2n(C2CC2)c1=O)N1CCN(C(=O)C2CC2)CC1 | inactive |
| O=C(C1CCOCC1)N1CC2CC(C1)[C@H]1CCCC(=O)N1C2 (some centres undefined) | inactive |
| O=C(NC1CCN(c2ccc3nnc(C4CC4)n3n2)CC1)C1CCCCC1 | inconclusive: 39.8 µM [inhibitor, full curve] |
| CC(C)(C)OC(=O)N1CC(Nc2cccc(C(F)(F)F)c2)C1 | inconclusive: 89.1 µM [inhibitor, partial curve, poor fit] |
| CN(C)c1ncc2c(n1)C(C)(C(=O)NCCOc1ccccc1)CCC2 (centres undefined) | inconclusive: 100 µM [inhibitor, partial curve] |
| CC(=O)Nc1ccc(CN2CC(N(C)c3ccccc3C)C2)cc1 | inconclusive: 112 µM [inhibitor, partial curve, poor fit] |
| COc1ccc(-c2nnc(C[C@@H]3C[C@@H](C(C)C)[C@H](CNCc4ccco4)C=C3C)o2)cc1 | active: 44.7 µM |
| COc1ccc(-c2noc([C@@H]3CCCN3C(=O)c3ccc(F)cc3)n2)cc1OC | inconclusive: 79.4 µM [inhibitor, single point] |
| O=C(CCc1ccccc1)NCCC1CCN(C(=O)Nc2cc(F)cc(F)c2)CC1 | inconclusive: 100 µM [inhibitor, single point] |
| CC(NC(=O)c1ccc(OC(F)(F)F)cc1)C(=O)N1CCN(c2ccccn2)CC1 (centres undefined) | inconclusive: 89.1 µM [inhibitor, single point] |
| O=C1Cc2c(-c3ccc(Oc4ccccc4)cc3)n[nH]c2CN1CCc1ccncc1 | active: 79.4 µM |
| C#CCNC(=O)c1cn2cc(-c3ccc(C)cc3)sc2n1 | inactive |
| O=C(NC1CCCN(c2cc(-c3ccc(F)cc3)[nH]n2)C1)c1ccccn1 (centres undefined) | inconclusive: 50.1 µM [inhibitor, partial curve, poor fit] |
| COCC(=O)NC[C@H]1O[C@H](Cc2cc(-c3ccc(F)cc3)on2)CC[C@@H]1O | inactive |
